Measurements from the supplement of paper PMC10320760.
The data scatter; read single values as rough.

B1: Ydj1; a variant is named by its letters at X, in order (parent)
chain: MVKETKFYDILGVPVTATDVEIKKAYRKCALKYHPDKNPSEEAAEKFKEASAAYEILSDPEKRDIYDQFGEDGLSGAGGAGGFPGGGFGFGDDIFSQFFGAGGAQRPRGPQRGKDIKHEISASLEELYKGRTAKLALNKQILCKECEGRGGKKGAVKKCTSCNGQGIKFVTRQMGPMIQRFQTECDVCHGTGDIIDPKDRCKSCNGKKVENERKILEVHVEPGMKDGQRIVFKGEADQAPDVIPGDVVFIVSERPHKSFKRDGDDLVYEAEIDLLTAIAGGEFALEHVSGDWLKVGIVPGEVIAPGMRKVIEGKGMPIPKYGGYGNLIIKFTIKFPENHFTSEENLKKLEEILPPRIVPAIPKKATVDECVLADFDPAKYNRTRASRGGANYDSDEEEQGGEGVQCXXX

Variants of: B1
Experiment: enrichment factor, frequency at 37 °C / frequency at 25 °C (thermotolerance selection) (ratio); higher = more growth at 37 °C, higher likelihood of farnesylation
Conditions: with Saccharomyces cerevisiae ydj1Δ (yWS304); selective temperature 37 °C; reference temperature 25 °C
Procedure: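 Pooled library of all 8,000 Ydj1-CXXX C-terminal motif variants (native CASQ replaced by C + three variable residues, one codon per amino acid) expressed from a CEN plasmid in S. cerevisiae ydj1Δ (yWS304). The library was grown in SC-Ura liquid to A600 ~2 (~8 generations) at permissive 25 °C or selective 37 °C. Reads from 8 and 7 replicates were pooled and variants counted by NGS. Enrichment factor = frequency at 37 °C / frequency at 25 °C, with a +1 correction; it reports Ydj1-dependent thermotolerance, used as a read-out of farnesylation by yeast FTase.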

Row | Variant | enrichment factor
1 | PKK | 0.0982
2 | PKP | 0.154
3 | PKA | 0.219
4 | MIY | 1.99
5 | DIW | 1.7
6 | DIY | 1.94
7 | HIY | 2.23
8 | GIY | 1.31
9 | DKK | 0.056
10 | DKM | 0.179
11 | DKF | 0.169
12 | DKE | 0.113
13 | DKG | 0.165
14 | DKR | 0.108
15 | DKI | 0.17
16 | DKQ | 0.0987
17 | DKA | 0.0872
18 | DKC | 0.133
19 | DKP | 0.141
20 | DKD | 0.127
21 | DKN | 0.124
22 | DKH | 0.166
23 | DKL | 0.115
24 | SKN | 0.131

Row | Variant | enrichment factor
25 | SKQ | 0.465
26 | SKI | 0.152
27 | SKE | 0.111
28 | SKA | 0.165
29 | SKP | 0.0799
30 | SKG | 0.0854
31 | SKK | 0.0914
32 | SKF | 0.241
33 | SKL | 0.253
34 | SKH | 0.127
35 | SKR | 0.177
36 | SKC | 0.163
37 | SKM | 0.234
38 | SKD | 0.069
39 | IKC | 0.31
40 | IKM | 0.94
41 | IKI | 0.243
42 | IKH | 0.145
43 | IKD | 0.187
44 | IKQ | 1.31
45 | IKP | 0.194
46 | IKE | 0.188
47 | IKA | 0.118
48 | IKS | 0.275

Row | Variant | enrichment factor
49 | IKK | 0.113
50 | IKL | 0.297
51 | IKN | 0.108
52 | IKR | 0.134
53 | IKG | 0.101
54 | IKF | 0.213
55 | AKH | 0.224
56 | AKE | 0.301
57 | AKL | 0.152
58 | AKN | 0.22
59 | AKM | 1.21
60 | AKF | 0.276
61 | AKG | 0.172
62 | AKA | 0.114
63 | AKC | 0.118
64 | AKP | 0.215
65 | AKS | 0.21
66 | AKK | 0.255
67 | AKI | 0.114
68 | AKQ | 1.33
69 | AKR | 0.155
70 | AKD | 0.154
71 | RKK | 0.0945
72 | RKQ | 0.388

Row | Variant | enrichment factor
73 | RKN | 0.175
74 | RKH | 0.164
75 | RKR | 0.183
76 | RKF | 0.201
77 | RKA | 0.0643
78 | RKD | 0.227
79 | RKL | 0.11
80 | RKI | 0.113
81 | RKM | 0.688
82 | RKP | 0.133
83 | RKG | 0.116
84 | RKE | 0.0959
85 | RKC | 0.165
86 | QKL | 0.129
87 | QKR | 0.141
88 | QKQ | 0.316
89 | QKN | 0.198
90 | QKI | 0.212
91 | QKS | 0.18
92 | QKM | 0.224
93 | QKK | 0.165
94 | QKH | 0.102
95 | QKE | 0.12
96 | QKD | 0.121

Row | Variant | enrichment factor
97 | QKP | 0.125
98 | QKA | 0.142
99 | QKG | 0.0591
100 | QKC | 0.106
101 | QKF | 0.135
102 | EKI | 0.149
103 | EKA | 0.162
104 | EKF | 0.234
105 | EKP | 0.149
106 | EKR | 0.161
107 | EKH | 0.145
108 | EKC | 0.224
109 | EKG | 0.172
110 | EKM | 0.29
111 | EKL | 0.107
112 | EKD | 0.0618
113 | EKQ | 0.48
114 | EKK | 0.0804
115 | EKE | 0.174
116 | EKS | 0.116
117 | EKN | 0.257
118 | RIY | 0.59
119 | TIY | 1
120 | GKK | 0.0819

Row | Variant | enrichment factor
121 | GKF | 0.105
122 | GKL | 0.124
123 | GKS | 0.0847
124 | GKC | 0.154
125 | GKD | 0.0827
126 | GKQ | 0.16
127 | GKP | 0.257
128 | GKH | 0.187
129 | GKA | 0.339
130 | GKG | 0.0891
131 | GKM | 0.116
132 | GKN | 0.153
133 | GKI | 0.203
134 | GKR | 0.112
135 | GKE | 0.133
136 | YKG | 0.222
137 | YKP | 0.131
138 | YKL | 0.175
139 | YKF | 0.332
140 | YKC | 0.309
141 | YKR | 0.105
142 | YKN | 0.266
143 | YKH | 0.14
144 | YKK | 0.11

Row | Variant | enrichment factor
145 | YKQ | 0.296
146 | YKI | 0.303
147 | YKM | 0.71
148 | YKA | 0.118
149 | YKD | 0.177
150 | YKE | 0.146
151 | KKF | 0.134
152 | KKH | 0.156
153 | KKI | 0.11
154 | KKN | 0.149
155 | KKP | 0.119
156 | KKD | 0.325
157 | KKS | 0.225
158 | KKL | 0.18
159 | KKC | 0.103
160 | KKK | 0.339
161 | KKM | 0.145
162 | KKE | 0.203
163 | KKR | 0.165
164 | KKG | 0.186
165 | KKA | 0.156
166 | KKQ | 0.145
167 | FIY | 1.74
